In PubChem BioAssay AID493208 (National Center for Advancing Translational Sciences (NCATS), 2011):
About 340 (0.77%) of roughly 44,000 compounds were called active. Inconclusive results (about 5%) are left out. Calls come from the whole dose curve; as a rule, active = well fitted inhibition curve with a large enough effect; inconclusive = small, poorly fitted or top-dose-only effect; inactive = flat fitted curve, though single readings scatter. This is one part of the list.

Assay: Acumen qHTS Assay for Inhibitors of the mTORC1 Signaling Pathway in MEF (Tsc2-/-, p53-/-) Cells: Sytravon; note: nearly all actives have a fitted effect of over 50% in size;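 for activity change, negative = inhibition: plate controls were DMSO for no effect and rapamycin for full effect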
Settings: phospho-rpS6 immunofluorescence/PI, 24 h; series mostly up to 38.3 µM; activity change, negative = inhibition: at the top concentration
Outline: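 Readout is phospho-S6 Alexa 488 signal normalized to PI per well, reported as % active cells with thresholds set from rapamycin (7.5 nM) and DMSO controls. Cells: Tsc2-/-, p53-/- MEFs, 24 hrs compound at 37 C; PI cell number serves as viability.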
Potency is the fitted concentration of half-maximal effect.

| SMILES | activity change, negative = inhibition | Potency |
| --- | --- | --- |
| Cc1ccccc1Cn1cccc(C(=O)Nc2cc(Cl)ccc2C#N)c1=O | inactive: -5.44% | – |
| O=C(Nc1ccc2c(c1)OCO2)c1cccn(Cc2ccc(F)cc2)c1=O | inactive: 0.406% | – |
| Cc1oc(-c2ccc(Cl)cc2)nc1CN1C(=O)CN=C(c2ccccc2)c2cc(Cl)ccc21 | inactive: -0.931% | – |
| COc1ccc(-c2nn3c(=O)cc(CN4CCN(C(=O)COc5ccc(F)cc5)CC4)nc3s2)cc1 | inactive: 1.98% | – |
| O=C1CN=C(c2ccccc2)c2cc(Cl)ccc2N1Cc1ccc(Cl)cc1 | inactive: 1.84% | – |
| COc1ccccc1-n1c(/C=C/c2ccccc2)nc2ccccc2c1=O | inactive: 10.3% | – |
| CCc1ccc(OCC(=O)N2CCN(CCc3ccccn3)CC2)cc1 | inactive: 0.135% | – |
| COc1ccc(-c2nc(CN3C(=O)CN=C(c4ccccc4)c4ccccc43)c(C)o2)cc1OC | inactive: 1.87% | – |
| COc1cc(/C=C/c2nc3ccccc3c(=O)n2-c2ccc(Br)c(C)c2)ccc1O | inactive: 0.314% | – |
| CCCCc1nc2ccccc2c(=O)n1-c1cccc(OC)c1 | inactive: -0.123% | – |
| O=C(c1ccc2c(c1)N(Cc1ccc(F)cc1Cl)C(=O)c1ccccc1S2)N1CCC2(CC1)OCCO2 | inactive: 9.54% | – |
| Cc1ccc(NC(=O)CN2C(=O)CN=C(c3ccccc3)c3ccccc32)c(C)c1 | inactive: 0.894% | – |
| N#Cc1cc2c(nc1SCC(=O)Nc1cccc(F)c1)C1CCN2CC1 | inactive: 4.11% | – |
| CCOc1ccc(-n2c(/C=C/c3ccccc3)nc3ccccc3c2=O)cc1 | inactive: 0% | – |
| CSc1ccc(C(c2c(O)c3ccccc3oc2=O)c2c(C)n(C)n(-c3ccccc3)c2=O)cc1 (stereo unspecified) | inactive: 0% | – |
| CN1CCN(c2csc3ccc(F)cc3c2=O)CC1 | inactive: 11.7% | – |
| O=C(Nc1ccc2c(c1)OCCO2)c1cccn(Cc2cccc([N+](=O)[O-])c2)c1=O | inactive: -0.194% | – |
| N#Cc1cc([N+](=O)[O-])ccc1NC(=O)c1cccn(Cc2cccc(F)c2)c1=O | inactive: 0.278% | – |
| COc1ccc(NC(=O)CN2C(=O)C(C)N=C(c3ccccc3F)c3cc(Cl)ccc32)c(OC)c1 (stereo unspecified) | inactive: 0.498% | – |
| Cc1cc(C)cc(-n2c(/C=C/c3cccc(F)c3)nc3ccccc3c2=O)c1 | inactive: 15.7% | – |
| Cc1ccc(NC(=O)N(Cc2ccc3c(c2)OCO3)C2CCN(Cc3ccccc3)CC2)cc1F | inactive: 0% | – |
| COc1ccc(OC)c(NC(=O)Cn2cc(C(=O)c3ccccc3F)c3ccccc32)c1 | inactive: -1.49% | – |
| Cc1nnc(NC(=O)c2cccn(Cc3ccc(Cl)cc3)c2=O)s1 | inactive: -1.81% | – |
| Cc1cc(C)cc(-n2c(=O)[nH]c3ccccc3c2=O)c1 | inactive: -22.9% | – |
| CCCSc1nc2ccccc2c(=O)n1-c1ccccc1OC | inactive: 16% | – |
| CCC12CN3CC(CC)(CN(C1)C3c1ccccn1)C2=O (stereo unspecified) | inactive: 1.82% | – |

| SMILES | activity change, negative = inhibition | Potency |
| --- | --- | --- |
| CC(=O)N1CC(=O)Nc2ccc(F)cc2C1c1ccccc1 (stereo unspecified) | inactive: -5.27% | – |
| Cc1nnc(NC(=O)c2cccn(Cc3ccccc3F)c2=O)s1 | inactive: 2.67% | – |
| O=C1CC(c2c(F)cccc2Cl)c2c(c3ccccc3oc2=O)O1 (stereo unspecified) | inactive: 3.34% | – |
| Cc1c(C(c2ccc(F)cc2)c2c(O)c3ccccc3oc2=O)c(=O)n(-c2ccccc2)n1C (stereo unspecified) | inactive: -15.4% | – |
| O=C(COc1ccc(Cl)cc1)Nc1ccc(Cl)cc1C(=O)c1ccccc1 | inactive: 2.65% | – |
| Cc1oc(-c2ccc(Cl)cc2)nc1CN1C(=O)CN=C(c2ccccc2)c2ccccc21 | inactive: -6.01% | – |
| O=c1[nH]c2ccccc2c(=O)n1-c1ccc(Cl)c(Cl)c1 | inactive: 7.98% | – |
| Cc1cccc(NC(=O)Cn2cc(C(=O)c3ccccc3)c3ccccc32)c1C | inactive: -5.27% | – |
| O=C(Nc1ccon1)c1cccn(Cc2cccc(Cl)c2)c1=O | inactive: -2.65% | – |
| O=C1CC(c2ccc(Br)cc2)c2c(c3ccccc3oc2=O)O1 (stereo unspecified) | inactive: 2.61% | – |
| Cc1cc(NC(=O)c2cccn(Cc3cccc(Cl)c3)c2=O)no1 | inactive: -15.4% | – |
| Cc1cccc(-n2c(/C=C/c3cn(C)c4ccccc34)nc3ccccc3c2=O)c1 | inactive: 18.6% | – |
| COc1ccc(/C=C/c2nc3ccccc3c(=O)n2-c2ccc(C)cc2)cc1O | inactive: 12.3% | – |
| O=C(Nc1ccon1)c1cccn(Cc2ccccc2)c1=O | inactive: -2.01% | – |
| O=c1c2ccccc2nc(/C=C\c2ccc(F)cc2)n1-c1ccccc1F | inactive: 7.93% | – |
| COc1ccc(OCC(=O)N2CCN(Cc3cc(=O)n4nc(-c5ccccc5C)sc4n3)CC2)cc1 | inactive: -20.7% | – |
| CC(=O)NS(=O)(=O)c1ccc(NC(=O)c2cccn(Cc3ccc(Cl)cc3)c2=O)cc1 | inactive: 1.94% | – |
| Cc1cccc(NC(=O)Cn2cc(C(=O)c3ccccc3)c3ccccc32)c1 | inactive: -20.3% | – |
| O=C(CCc1nc(C2=CCN(Cc3cccc(Cl)c3)CC2)no1)Nc1ccccc1F | inactive: -15.4% | – |
| O=C(COc1ccccc1Cl)N1CCN(CCc2ccncc2)CC1 | inactive: 0% | – |
| N#Cc1cc2c(nc1SCC(=O)Nc1ccc(OC(F)(F)F)cc1)C1CCN2CC1 | inactive: -25.3% | – |
| Cc1ccc2oc(-c3ccc(Cl)cc3)c(O)c(=O)c2c1 | – | active: 9.27 µM |
| O=S1(=O)N(Cc2ccccc2)CCCN1Cc1cccc(Cl)c1 | inactive: 9.7% | – |
| Cc1ccc(Cn2cccc(C(=O)Nc3cc([N+](=O)[O-])ccc3C)c2=O)cc1 | inactive: -7.2% | – |
| O=C(COc1cccc(Cl)c1)N1CCN(CCc2ccncc2)CC1 | inactive: -2.53% | – |
